Measurements taken from PubChem BioAssay AID1347428 (National Center for Advancing Translational Sciences (NCATS), 2020).
Out of some 91,000 compounds screened, about 290 (0.32%) were called active. This list was built around the results that the source calls inconclusive (neither active nor inactive); the mix of calls is not that of the screen. The call rests on the fitted dose curve; in most records, active means well fitted inhibition curve with a large enough effect; inconclusive means small, poorly fitted or top-dose-only effect; inactive means no such curve, though single readings can be large or run the other way. Potencies beside an inconclusive call are fits to weak or partial responses and may not hold up.
Further: nearly all actives have a fitted effect of over 25% in size.
On the % scale 0 is the no-effect control and ±100 the full control effect; potency means the concentration at half of the fitted maximal effect; tags describe the fitted curve by direction and shape.

These compounds were tested against Single-stranded DNA cytosine deaminase (Homo sapiens) (UniProt Q9GZX7) (assay: Primary qHTS assay for inhibitors of Activation Induced Cytidine Deaminase (AID): AID signal). Conditions: AID deamination FRET fluorescence, UDG-coupled, 4 h; activity change, negative = inhibition: at 115 µM (top of the series).
Chain of UniProt Q9GZX7 (Q9GZX7 whole entry, looked up): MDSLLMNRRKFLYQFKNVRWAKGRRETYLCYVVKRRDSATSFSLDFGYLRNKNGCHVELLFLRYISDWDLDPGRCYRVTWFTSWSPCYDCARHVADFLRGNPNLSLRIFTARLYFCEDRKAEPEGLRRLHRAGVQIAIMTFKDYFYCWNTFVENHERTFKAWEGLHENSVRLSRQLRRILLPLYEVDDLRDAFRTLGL
`COc1ccccc1N1CCN(S(=O)(=O)c2ccc(-c3cnc(C4CC4)o3)cc2)CC1` was tested, and the Potency was inconclusive: 10 µM [inhibitor, full curve].
`Cc1ccc2occ(CC(=O)N3CCN(c4cccc(Cl)c4)CC3)c2c1` was tested, and the Potency was inconclusive: 20 µM [inhibitor, full curve, poor fit].
In the case of `Cn1cnc2c1c(=O)n(CCCN1CCCCCC1)c(=O)n2C`, the “activity change, negative = inhibition” value is reported as inactive: -7.54%.
`CCN(CC)CCNC(=O)c1cc2c(=O)oc3ccc(C)cc3c2s1` was tested, and the Potency was inconclusive: 2.82 µM [inhibitor, full curve, poor fit].
In the case of `CCCCc1ccc(NC(=O)CSc2nnc3[nH]c(=O)cc(C)n23)cc1`, the Potency is reported as inconclusive: 39.8 µM [inhibitor, single point].
`O=C(NC(c1ccc(Cl)cc1)c1cccnc1)c1ccccc1` (centres undefined) was tested, and the “activity change, negative = inhibition” value was inactive: -4.42%.
In the case of `Cc1ccc(C)c(N2CCN(S(=O)(=O)c3csc(C(N)=O)c3)CC2)c1`, the Potency is reported as inconclusive: 17.8 µM [inhibitor, full curve, poor fit].
In the case of `CC(C)NC[C@@H](O)c1ccc(O)c(O)c1`, the Potency is reported as inconclusive: 79.4 µM [inhibitor, single point].
With `COc1ccccc1CNC(=O)c1cc2ccc3ccc(C)[nH]c3c2n1` the Potency was inconclusive: 11.2 µM [inhibitor, partial curve, poor fit].
For `COc1ccc(-c2noc(CSc3nnc(-c4ccccc4)n3C)n2)cc1`, the “activity change, negative = inhibition” value was inactive: -17.9%.
In the case of `COc1cc(/C=N/O)c(Br)cc1O`, the “activity change, negative = inhibition” value is reported as inactive: 1.41%.
`Cc1ccc2cc3cc(C(=O)N(C)c4ccccc4C)oc3nc2c1` was tested, and the Potency was inconclusive: 56.2 µM [inhibitor, partial curve, poor fit].
`Cc1cccc(N2CCN(c3nc4ccccc4c4nc(-c5cccnc5)nn34)CC2)c1C` was tested, and the Potency was inconclusive: 25.1 µM [inhibitor, single point].
In the case of `Cc1cccc(-n2cnc3cc(C(=O)NC4CCCCCC4)ccc32)c1`, the Potency is reported as inconclusive: 50.1 µM [inhibitor, partial curve, poor fit].
With `Nc1ccc2oc(Cc3ccc(Cl)cc3)nc2c1` the Potency was inconclusive: 44.7 µM [inhibitor, partial curve, poor fit].
`O=C(COC(=O)c1cc(=O)c2ccccc2o1)NC1CC1` was tested, and the “activity change, negative = inhibition” value was inactive: 5.25%.
For `COc1cccc(-c2ccc3c(N)c(C(=O)Nc4ccccc4C)sc3n2)c1`, the Potency was inconclusive: 79.4 µM [inhibitor, single point].
For `Cc1ccc(C(=O)/C(C#N)=C/c2ccc(OCc3ccccc3Cl)cc2)cc1`, the Potency was inconclusive: 20 µM [inhibitor, full curve, poor fit].
`O=C(NCc1ccco1)c1ccc2c(c1)N(Cc1ccccc1F)C(=O)c1ccccc1S2(=O)=O` was tested, and the “activity change, negative = inhibition” value was inactive: -9.76%.
In the case of `CC(=O)Nc1ccc(S(=O)(=O)N(Cc2ccccc2)Cc2ccccc2)cc1`, the Potency is reported as inconclusive: 20 µM [inhibitor, full curve, poor fit].
For `O=C(c1ccc(Cl)cc1)c1cn(Cc2ccccc2)c2cc3c(cc2c1=O)OCCO3`, the Potency was inconclusive: 17.8 µM [inhibitor, full curve, poor fit].
`COc1cc(OC)c(OC)cc1/C=C/c1nc2ccccc2c(=O)n1-c1ccc(Br)c(C)c1` was tested, and the Potency was inconclusive: 44.7 µM [inhibitor, partial curve].
For `COc1ccc(N(C)C(=O)c2cc3c(s2)-c2ccccc2OC3)cc1`, the Potency was active: 44.7 µM.
In the case of `COc1ccc(C(=O)N2CCN(c3nc4c(C)c(Cl)ccc4s3)CC2)c(OC)c1`, the Potency is reported as inconclusive: 44.7 µM [inhibitor, partial curve, poor fit].
For `COc1ccc(S(=O)(=O)Nc2cc(-c3cn4cccc(C)c4n3)ccc2C)cc1C`, the Potency was inconclusive: 50.1 µM [inhibitor, partial curve, poor fit].
For `COc1ccc(N(C(=O)c2ccccc2C)S(=O)(=O)c2ccc(C)cc2)cc1`, the Potency was inconclusive: 56.2 µM [inhibitor, partial curve, poor fit].
In the case of `CCOC(=O)C1=C(CN2CCN(c3cc(C)ccc3C)CC2)NC(=O)NC1c1ccccc1` (centres undefined), the Potency is reported as inconclusive: 10 µM [inhibitor, full curve, poor fit].
`COc1ccc2nc(N(Cc3cccnc3)C(=O)c3ccco3)sc2c1` was tested, and the Potency was inconclusive: 50.1 µM [inhibitor, partial curve, poor fit].
For `Cc1cc(OCCn2cc(C(=O)c3ccco3)c3ccccc32)ccc1Cl`, the Potency was inconclusive: 39.8 µM [inhibitor, partial curve].
In the case of `Cc1cc(Nc2cc(Cl)ccc2C)n2nc(Cc3ccccc3)nc2n1`, the Potency is reported as inconclusive: 56.2 µM [inhibitor, partial curve, poor fit].
`COc1ccc(CNC(=O)Cc2coc3ccc(C(C)C)cc23)cc1` was tested, and the Potency was inconclusive: 22.4 µM [inhibitor, full curve, poor fit].
`CCOc1cccc(C2c3[nH]c4ccccc4c3CCN2C(=O)CCc2ccccc2)c1` (centres undefined) was tested, and the Potency was inconclusive: 35.5 µM [inhibitor, partial curve].
For `COc1ccc(NCc2nc3ccccc3n2CCOc2ccc(C)cc2)cc1`, the Potency was inconclusive: 14.1 µM [inhibitor, full curve, poor fit].
With `Cc1ccc(-n2ncc3c(N4CCC(C)CC4)ncnc32)cc1C` the Potency was inconclusive: 79.4 µM [inhibitor, partial curve, poor fit].
For `O=C(NCc1cccc(Br)c1)c1ccc(-n2cnc3cccnc32)cc1`, the Potency was inconclusive: 44.7 µM [inhibitor, full curve, poor fit].
In the case of `Cc1ccc(NCc2nc3ccccc3n2CCOc2ccccc2C)cc1`, the Potency is reported as inconclusive: 17.8 µM [inhibitor, full curve, poor fit].
`O=C(c1ccco1)N(Cc1cccnc1)c1nc2c(F)cccc2s1` was tested, and the Potency was inconclusive: 89.1 µM [inhibitor, partial curve, poor fit].
In the case of `COc1ccc(NC(=O)C(C)n2nc(C)c3c(C)n(-c4ccccc4)nc3c2=O)cc1Cl` (centres undefined), the Potency is reported as inconclusive: 20 µM [inhibitor, partial curve, poor fit].
In the case of `Cc1cc(NC(=O)CCN2CCN(Cc3cccc4ccccc34)CC2)ccc1Br`, the Potency is reported as inconclusive: 39.8 µM [inhibitor, partial curve].
